# Experimental data: the supplement of paper PMC8728848
# The other results are listed elsewhere or left out.
# How the values were obtained:
# Test in all cases: glycan array binding signal (z-score within array); higher = stronger binding
# Details in all cases: glycan notation: IUPAC condensed, linker removed
# [1] = molecular target: Gal(b1-4)GlcNAc(b1-2)[Gal(b1-4)GlcNAc(b1-4)]Man(a1-3)[Gal(b1-4)GlcNAc(b1-2)Man(a1-6)]Man(b1-4)GlcNAc(b1-4)GlcNAc
# Outline: (§1)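 Glycan array data came from 3228 arrays in the Consortium for Functional Glycomics database, and only arrays with an available protein sequence were kept. Glycan names were put into IUPAC-condensed notation, and columns mapping to the same glycan were averaged. The binding signal is a within-array Z-score, averaged across arrays of one protein sequence run at different concentrations or buffers and across linkers. A negative Z-score can be read as non-binding.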
# [2] = molecular target: Gal(b1-4)GlcNAc(b1-2)[Gal(b1-4)GlcNAc(b1-4)]Man(a1-3)[Gal(b1-4)GlcNAc(b1-2)[Gal(b1-4)GlcNAc(b1-6)]Man(a1-6)]Man(b1-4)GlcNAc(b1-4)GlcNAc
# Outline: as §1
# [3] = molecular target: Gal(b1-4)GlcNAc(b1-2)[Gal(b1-4)GlcNAc(b1-4)]Man(a1-3)[GlcNAc(b1-4)][Gal(b1-4)GlcNAc(b1-2)Man(a1-6)]Man(b1-4)GlcNAc(b1-4)GlcNAc
# Outline: as §1
# [4] = molecular target: Gal(b1-4)GlcNAc(b1-2)[Gal(b1-4)GlcNAc(b1-4)]Man(a1-3)[GlcNAc(b1-4)][Gal(b1-4)GlcNAc(b1-2)[Gal(b1-4)GlcNAc(b1-6)]Man(a1-6)]Man(b1-4)GlcNAc(b1-4)GlcNAc
# Outline: as §1
# [5] = molecular target: Gal(b1-4)GlcNAc(b1-2)[Gal(b1-4)GlcNAc(b1-6)]Man(a1-6)[Gal(b1-4)GlcNAc(b1-2)Man(a1-3)]Man(b1-4)GlcNAc(b1-4)GlcNAc
# Outline: as §1
# [6] = molecular target: Gal(b1-4)GlcNAc(b1-2)[Gal(b1-4)GlcNAc(b1-6)]Man(a1-6)[Gal(b1-4)GlcNAc(b1-2)Man(a1-3)]Man(b1-4)GlcNAc(b1-4)[Fuc(a1-6)]GlcNAc
# Outline: as §1
# [7] = molecular target: Gal(b1-4)GlcNAc(b1-2)[Gal(b1-4)GlcNAc(b1-6)]Man(a1-6)[GlcNAc(b1-4)][Gal(b1-4)GlcNAc(b1-2)Man(a1-3)]Man(b1-4)GlcNAc(b1-4)GlcNAc
# Outline: as §1
# [8] = molecular target: Gal(b1-4)GlcNAc(b1-2)[Gal(b1-4)GlcNAc(b1-6)]Man(a1-6)[GlcNAc(b1-4)][Gal(b1-4)GlcNAc(b1-2)[Gal(b1-4)GlcNAc(b1-4)]Man(a1-3)]Man(b1-4)GlcNAc(b1-4)[Fuc(a1-6)]GlcNAc
# Outline: as §1
# [9] = molecular target: Gal(b1-4)GlcNAc(b1-3)Gal(b1-3)GalNAc
# Outline: as §1
# [10] = molecular target: Gal(b1-4)GlcNAc(b1-3)Gal(b1-3)GlcNAc
# Outline: as §1
# [11] = molecular target: Gal(b1-4)GlcNAc(b1-3)Gal(b1-4)Glc
# Outline: as §1
# [12] = molecular target: Gal(b1-4)GlcNAc(b1-3)Gal(b1-4)GlcNAc
# Outline: as §1
# [13] = molecular target: Gal(b1-4)GlcNAc(b1-3)Gal(b1-4)GlcNAc(b1-2)Man(a1-3)[Gal(b1-4)GlcNAc(b1-3)Gal(b1-4)GlcNAc(b1-2)Man(a1-6)]Man(b1-4)GlcNAc(b1-4)GlcNAc
# Outline: as §1
# [14] = molecular target: Gal(b1-4)GlcNAc(b1-3)Gal(b1-4)GlcNAc(b1-2)Man(a1-3)[Gal(b1-4)GlcNAc(b1-3)Gal(b1-4)GlcNAc(b1-2)Man(a1-6)]Man(b1-4)GlcNAc(b1-4)[Fuc(a1-6)]GlcNAc
# Outline: as §1
# [15] = molecular target: Gal(b1-4)GlcNAc(b1-3)Gal(b1-4)GlcNAc(b1-2)[Gal(b1-4)GlcNAc(b1-3)Gal(b1-4)GlcNAc(b1-6)]Man(a1-6)[Gal(b1-4)GlcNAc(b1-3)Gal(b1-4)GlcNAc(b1-2)Man(a1-3)]Man(b1-4)GlcNAc(b1-4)GlcNAc
# Outline: as §1
# [16] = molecular target: Gal(b1-4)GlcNAc(b1-3)Gal(b1-4)GlcNAc(b1-2)[Gal(b1-4)GlcNAc(b1-3)Gal(b1-4)GlcNAc(b1-6)]Man(a1-6)[Gal(b1-4)GlcNAc(b1-3)Gal(b1-4)GlcNAc(b1-2)Man(a1-3)]Man(b1-4)GlcNAc(b1-4)[Fuc(a1-6)]GlcNAc
# Outline: as §1
# [17] = molecular target: Gal(b1-4)GlcNAc(b1-3)Gal(b1-4)GlcNAc(b1-3)Gal(b1-4)GlcNAc
# Outline: as §1
# [18] = molecular target: Gal(b1-4)GlcNAc(b1-3)Gal(b1-4)GlcNAc(b1-3)Gal(b1-4)GlcNAc(b1-2)Man(a1-3)[Gal(b1-4)GlcNAc(b1-3)Gal(b1-4)GlcNAc(b1-3)Gal(b1-4)GlcNAc(b1-2)Man(a1-6)]Man(b1-4)GlcNAc(b1-4)GlcNAc
# Outline: as §1
# [19] = molecular target: Gal(b1-4)GlcNAc(b1-3)Gal(b1-4)GlcNAc(b1-3)Gal(b1-4)GlcNAc(b1-2)Man(a1-3)[Gal(b1-4)GlcNAc(b1-3)Gal(b1-4)GlcNAc(b1-3)Gal(b1-4)GlcNAc(b1-2)Man(a1-6)]Man(b1-4)GlcNAc(b1-4)[Fuc(a1-6)]GlcNAc
# Outline: as §1
binder,measurement,setting,value
"CSA (Cytisus scoparius), P29257 (protein) SEELSFSFTKFKTDQKNLILQRDALITPTGKLQLTTVENGKPAAYSLGRALYSTPIHIWDKSTGDEASFATFFSFVISDAPNPSTAATDGLAFFLAPADTQPQSAGGYLGLFEKDSSYNSSNQIVAVEFDTYYNSAWDPQTNPHIGIDVNTIKSKKVSSWGFKNGNVATVLITYQPSSKSLVASLVYPSGQTSDKTSYIISANVDLKATVPEWVRIGFSATTGQTDNYIETHDILSWSFKSKLPATKN",glycan array binding signal (z-score),[1],-0.073
same,glycan array binding signal (z-score),[2],0.376
same,glycan array binding signal (z-score),[3],-0.066
same,glycan array binding signal (z-score),[4],0.13
same,glycan array binding signal (z-score),[5],-0.14
same,glycan array binding signal (z-score),[6],-0.09
same,glycan array binding signal (z-score),[7],-0.118
same,glycan array binding signal (z-score),[8],0.607
same,glycan array binding signal (z-score),[9],-0.103
same,glycan array binding signal (z-score),[10],-0.17
same,glycan array binding signal (z-score),[11],-0.154
same,glycan array binding signal (z-score),[12],-0.137
same,glycan array binding signal (z-score),[13],0.356
same,glycan array binding signal (z-score),[14],-0.047
same,glycan array binding signal (z-score),[15],-0.059
same,glycan array binding signal (z-score),[16],0.259
same,glycan array binding signal (z-score),[17],-0.206
same,glycan array binding signal (z-score),[18],0.488
same,glycan array binding signal (z-score),[19],0.223
